{"source": "the antibiotic and cytotoxicity screens of Wong et al. (2023)", "note": "The other results are listed elsewhere or left out.", "data": [{"test_system": "HSkMC (human skeletal muscle cells)", "experiment": "cytotoxicity call (relative viability < 0.9)", "details": "10 µM", "values": [{"molecule": "Cc1ccc(C2(CN3CCN4C(=O)CN(C)C(=O)[C@H]4C3)CCNCC2)nc1", "cytotoxicity call": "inactive"}, {"molecule": "C[C@@H]1CCCCO[C@@H](CN(C)Cc2ccccc2)[C@H](C)CN([C@@H](C)CO)C(=O)c2cc(NC(=O)c3ccncc3)ccc2O1", "cytotoxicity call": "inactive"}, {"molecule": "Cc1ccc(S(=O)(=O)N(C)C[C@H]2Oc3ccc(NS(=O)(=O)c4ccc(F)cc4)cc3CC(=O)N([C@@H](C)CO)C[C@@H]2C)cc1", "cytotoxicity call": "inactive"}, {"molecule": "O=C(C[C@@H]1CC[C@H]2[C@@H](COC[C@H](O)CN2C(=O)c2cnccn2)O1)N1CCN(c2ccccc2)CC1", "cytotoxicity call": "inactive"}, {"molecule": "O=C(C[C@@H]1C[C@@H]2c3cc(NC(=O)Nc4ccccc4F)ccc3O[C@@H]2[C@@H](CO)O1)NCc1ccc(Oc2ccccc2)cc1", "cytotoxicity call": "inactive"}, {"molecule": "CCCNC(=O)N1C[C@]2(CN(C2)S(=O)(=O)c2cccc(c2)OC)c2c(n(c3cc(ccc23)OC)C)[C@@H]1CO", "cytotoxicity call": "inactive"}, {"molecule": "Cc1cc(C(=O)Nc2cccc3c2O[C@H](CN(C)C(=O)Nc2c(C)noc2C)[C@@H](C)CN([C@@H](C)CO)C3=O)n(C)n1", "cytotoxicity call": "inactive"}, {"molecule": "C/C(=C\\C(=O)OCCCCCCCCC(=O)O)C[C@@H]1OC[C@H](C[C@@H]2O[C@H]2[C@@H](C)[C@H](C)O)[C@@H](O)[C@H]1O", "cytotoxicity call": "inactive"}, {"molecule": "COc1ccc(S(=O)(=O)N(C)C[C@H]2Oc3ccc(NC(=O)C4CC4)cc3C(=O)N([C@@H](C)CO)C[C@H]2C)cc1", "cytotoxicity call": "inactive"}, {"molecule": "CO[C@@H]1CN(C)C(=O)c2ccc(NC(=O)Nc3cccc(Cl)c3)cc2OC[C@@H](C)N(C(=O)Nc2c(C)noc2C)C[C@H]1C", "cytotoxicity call": "inactive"}, {"molecule": "NCCCn1c2c(c3ccccc31)CCCC2", "cytotoxicity call": "inactive"}, {"molecule": "COc1ccccc1-c1ccc2c(c1)O[C@@H](CN(C)CC1CCOCC1)[C@H](C)CN([C@@H](C)CO)S2(=O)=O", "cytotoxicity call": "inactive"}, {"molecule": "O=C(N/N=C/[C@H](O)[C@@H](O)[C@H](O)[C@H](O)CO)c1ccccc1O", "cytotoxicity call": "inactive"}, {"molecule": "Cc1ccc(S(=O)(=O)Nc2ccc3c(c2)CC(=O)N([C@H](C)CO)C[C@H](C)[C@H](CN(C)Cc2ccc(Cl)c(Cl)c2)O3)cc1", "cytotoxicity call": "active"}, {"molecule": "COC(=O)c1sc2ncn(N)c(=O)c2c1C", "cytotoxicity call": "inactive"}, {"molecule": "C[C@@H]1CCCCO[C@@H](CN(C)S(=O)(=O)c2ccc(F)cc2)[C@@H](C)CN([C@@H](C)CO)C(=O)c2cc(NC(=O)c3ccccc3)ccc2O1", "cytotoxicity call": "inactive"}, {"molecule": "C[C@@H]1CN([C@@H](C)CO)C(=O)c2cccc(NC(=O)c3ccc(-c4nccs4)cc3)c2O[C@@H]1CN(C)Cc1ccc(C(=O)O)cc1", "cytotoxicity call": "inactive"}, {"molecule": "CC(C)CC#Cc1ccc2c(c1)O[C@@H](CN(C)C(=O)Cc1ccncc1)[C@@H](C)CN([C@@H](C)CO)S2(=O)=O", "cytotoxicity call": "inactive"}, {"molecule": "C[C@@H]1CN([C@H](C)CO)C(=O)c2cc(NS(=O)(=O)c3ccc(F)cc3)ccc2O[C@@H]1CN(C)C(=O)Nc1cccc2ccccc12", "cytotoxicity call": "inactive"}, {"molecule": "O=C(N[C@H]1CC[C@@H](CC(=O)N2CCOCC2)O[C@@H]1CO)c1ccc2c(c1)OCO2", "cytotoxicity call": "inactive"}, {"molecule": "C[C@H](CO)N1C[C@H](C)[C@H](CN(C)S(=O)(=O)c2ccc(F)cc2)OCCCC[C@H](C)Oc2ccc(NC(=O)C3CCCCC3)cc2C1=O", "cytotoxicity call": "inactive"}, {"molecule": "Cc1ncc(NC(=O)c2ccc(CN3CCN(C)CC3)c(C(F)(F)F)c2)cc1Nc1nccc(-c2cccnc2)n1", "cytotoxicity call": "inactive"}, {"molecule": "COc1ccc(S(=O)(=O)N(C)C[C@H]2Oc3c(NC(=O)C4CC4)cccc3C(=O)N([C@H](C)CO)C[C@H]2C)cc1", "cytotoxicity call": "inactive"}, {"molecule": "C[C@H](CO)N1C[C@H](C)[C@H](CN(C)S(=O)(=O)c2ccccc2)Oc2ccc(NC(=O)CCCN(C)C)cc2C1=O", "cytotoxicity call": "inactive"}, {"molecule": "Nc1ncnc2c1ncn2[C@H]1O[C@@H](COP(=O)(O)OP(=O)(O)OP(=O)(O)O)[C@@H](O)[C@@H]1O", "cytotoxicity call": "inactive"}, {"molecule": "CN1CCN(C(=O)C[C@H]2CC[C@@H]3[C@H](COC[C@@H](O)CN3C(=O)C3CC3)O2)CC1", "cytotoxicity call": "inactive"}, {"molecule": "C[C@@H]1CN([C@H](C)CO)S(=O)(=O)c2ccc(C#CCC3CCCC3)cc2O[C@@H]1CN(C)C(=O)c1cnccn1", "cytotoxicity call": "inactive"}, {"molecule": "C[C@@H]1CN([C@@H](C)CO)C(=O)c2cc(NC(=O)Nc3cccc4ccccc34)ccc2O[C@@H](C)CCCCO[C@H]1CN(C)C(=O)CCCN(C)C", "cytotoxicity call": "inactive"}, {"molecule": "CC(C)C#Cc1ccc2c(c1)O[C@@H](CN(C)S(=O)(=O)c1cn(C)cn1)[C@H](C)CN([C@H](C)CO)S2(=O)=O", "cytotoxicity call": "inactive"}, {"molecule": "O=C(C[C@H]1CC[C@H](NC(=O)CN2CCOCC2)[C@H](CO)O1)NCCc1ccncc1", "cytotoxicity call": "inactive"}]}]}
